Measured values: article PMC12820563
The other results are listed elsewhere or left out. The list includes weakly bound sequences.

Each sequence was assayed against T1, MBP-FoxP3dN (UniProt Q99JB6) (assay: PD-seq (MBP pull-down with sequencing)). Conditions: 20 mM Tris-HCl pH 7.5, 100 mM NaCl, 1.5 mM MgCl2, 0.4 uM protein, 0.1 uM dsDNA library, 30 min, room temperature, amylose pull-down; high values mean tight binding; double strand, one strand shown.
T1 sequence: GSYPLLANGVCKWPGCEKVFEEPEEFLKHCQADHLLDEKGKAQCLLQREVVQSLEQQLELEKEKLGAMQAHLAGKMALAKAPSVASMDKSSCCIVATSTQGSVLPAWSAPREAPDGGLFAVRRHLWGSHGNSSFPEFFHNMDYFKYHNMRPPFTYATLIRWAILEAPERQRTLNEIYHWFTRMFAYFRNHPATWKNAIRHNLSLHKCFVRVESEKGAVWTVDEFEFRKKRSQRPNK

Sequence | binding signal (RPM ratio (pull-down/input))
GATGATTGTTCTCCCAGCTGATGAATTCTGATCCTCGAGTAAACAAATTTTCCTAATCTTTCTGTTCAAGCGCCATCTAC | 0.399
GATGATTGTTCTCCCAGCTGATGAATTTCGTATATCGAGTAAACAAATTTTCCTAATCTTTCTGTTCAAGCGCCATCTAC | 2.22
GATGATTGTTCTCCCAGCTGATGAATTGTCGTGCTCGAGTAAACAAATTTTCCTAATCTTTCTGTTCAAGCGCCATCTAC | 0.657
GATGATTGTTCTCCCAGCTGATGAATTCGATTACTCGAGTAAACAAATTTTCCTAATCTTTCTGTTCAAGCGCCATCTAC | 3.98
GATGATTGTTCTCCCAGCTGATGAATTATCCTTCTCGAGTAAACAAATTTTCCTAATCTTTCTGTTCAAGCGCCATCTAC | 0.295
GATGATTGTTCTCCCAGCTGATGAATTTACGATATCGAGTAAACAAATTTTCCTAATCTTTCTGTTCAAGCGCCATCTAC | 0.664
GATGATTGTTCTCCCAGCTGATGAATTACTAATGTCGAGTAAACAAATTTTCCTAATCTTTCTGTTCAAGCGCCATCTAC | 0.473
GATGATTGTTCTCCCAGCTGATGAATTGCAATGTTCGAGTAAACAAATTTTCCTAATCTTTCTGTTCAAGCGCCATCTAC | 2.05
GATGATTGTTCTCCCAGCTGATGAATTCGTATCGTCGAGTAAACAAATTTTCCTAATCTTTCTGTTCAAGCGCCATCTAC | 1.53
GATGATTGTTCTCCCAGCTGATGAATTACACTCATCGAGTAAACAAATTTTCCTAATCTTTCTGTTCAAGCGCCATCTAC | 0.879
GATGATTGTTCTCCCAGCTGATGAATTCGGCCATTCGAGTAAACAAATTTTCCTAATCTTTCTGTTCAAGCGCCATCTAC | 3.92
GATGATTGTTCTCCCAGCTGATGAATTATGGGCATCGAGTAAACAAATTTTCCTAATCTTTCTGTTCAAGCGCCATCTAC | 0.941
GATGATTGTTCTCCCAGCTGATGAATTCTCGATCTCGAGTAAACAAATTTTCCTAATCTTTCTGTTCAAGCGCCATCTAC | 0.255
GATGATTGTTCTCCCAGCTGATGAATTAGTCTTGTCGAGTAAACAAATTTTCCTAATCTTTCTGTTCAAGCGCCATCTAC | 0.801
GATGATTGTTCTCCCAGCTGATGAATTGCCCCTCTCGAGTAAACAAATTTTCCTAATCTTTCTGTTCAAGCGCCATCTAC | 0.499
GATGATTGTTCTCCCAGCTGATGAATTAATTGGTTCGAGTAAACAAATTTTCCTAATCTTTCTGTTCAAGCGCCATCTAC | 3.13
GATGATTGTTCTCCCAGCTGATGAATTGGACTTGTCGAGTAAACAAATTTTCCTAATCTTTCTGTTCAAGCGCCATCTAC | 0.449
GATGATTGTTCTCCCAGCTGATGAATTTGGCCGTTCGAGTAAACAAATTTTCCTAATCTTTCTGTTCAAGCGCCATCTAC | 0.922
GATGATTGTTCTCCCAGCTGATGAATTTTAAGAATCGAGTAAACAAATTTTCCTAATCTTTCTGTTCAAGCGCCATCTAC | 0.196
GATGATTGTTCTCCCAGCTGATGAATTCGCTGATTCGAGTAAACAAATTTTCCTAATCTTTCTGTTCAAGCGCCATCTAC | 0.759
GATGATTGTTCTCCCAGCTGATGAATTGTATCTATCGAGTAAACAAATTTTCCTAATCTTTCTGTTCAAGCGCCATCTAC | 2.07

Sequence | binding signal (RPM ratio (pull-down/input))
GATGATTGTTCTCCCAGCTGATGAATTTGGCTAATCGAGTAAACAAATTTTCCTAATCTTTCTGTTCAAGCGCCATCTAC | 0.364
GATGATTGTTCTCCCAGCTGATGAATTGTGCAGCTCGAGTAAACAAATTTTCCTAATCTTTCTGTTCAAGCGCCATCTAC | 3.71
GATGATTGTTCTCCCAGCTGATGAATTATGGCCTTCGAGTAAACAAATTTTCCTAATCTTTCTGTTCAAGCGCCATCTAC | 2.06
GATGATTGTTCTCCCAGCTGATGAATTGTCCATTTCGAGTAAACAAATTTTCCTAATCTTTCTGTTCAAGCGCCATCTAC | 0.404
GATGATTGTTCTCCCAGCTGATGAATTCCGGCCGTCGAGTAAACAAATTTTCCTAATCTTTCTGTTCAAGCGCCATCTAC | 0.314
GATGATTGTTCTCCCAGCTGATGAATTGAACGCATCGAGTAAACAAATTTTCCTAATCTTTCTGTTCAAGCGCCATCTAC | 1.02
GATGATTGTTCTCCCAGCTGATGAATTAATCTCCTCGAGTAAACAAATTTTCCTAATCTTTCTGTTCAAGCGCCATCTAC | 0.248
GATGATTGTTCTCCCAGCTGATGAATTTACTTCCTCGAGTAAACAAATTTTCCTAATCTTTCTGTTCAAGCGCCATCTAC | 0.663
GATGATTGTTCTCCCAGCTGATGAATTGCTGGTGTCGAGTAAACAAATTTTCCTAATCTTTCTGTTCAAGCGCCATCTAC | 0.801
GATGATTGTTCTCCCAGCTGATGAATTTTTCCATTCGAGTAAACAAATTTTCCTAATCTTTCTGTTCAAGCGCCATCTAC | 0.299
GATGATTGTTCTCCCAGCTGATGAATTTATGATCTCGAGTAAACAAATTTTCCTAATCTTTCTGTTCAAGCGCCATCTAC | 3.11
GATGATTGTTCTCCCAGCTGATGAATTCCTACTATCGAGTAAACAAATTTTCCTAATCTTTCTGTTCAAGCGCCATCTAC | 0.361
GATGATTGTTCTCCCAGCTGATGAATTTTTGCTTTCGAGTAAACAAATTTTCCTAATCTTTCTGTTCAAGCGCCATCTAC | 0.978
GATGATTGTTCTCCCAGCTGATGAATTTCGAAAGTCGAGTAAACAAATTTTCCTAATCTTTCTGTTCAAGCGCCATCTAC | 0.231
GATGATTGTTCTCCCAGCTGATGAATTGGGCAGCTCGAGTAAACAAATTTTCCTAATCTTTCTGTTCAAGCGCCATCTAC | 0.963
GATGATTGTTCTCCCAGCTGATGAATTAACCAGTTCGAGTAAACAAATTTTCCTAATCTTTCTGTTCAAGCGCCATCTAC | 0.215
GATGATTGTTCTCCCAGCTGATGAATTATTAAGCTCGAGTAAACAAATTTTCCTAATCTTTCTGTTCAAGCGCCATCTAC | 0.301
GATGATTGTTCTCCCAGCTGATGAATTAGCGCTTTCGAGTAAACAAATTTTCCTAATCTTTCTGTTCAAGCGCCATCTAC | 1.25
GATGATTGTTCTCCCAGCTGATGAATTGGTGGCGTCGAGTAAACAAATTTTCCTAATCTTTCTGTTCAAGCGCCATCTAC | 1.01
GATGATTGTTCTCCCAGCTGATGAATTTATTGTATCGAGTAAACAAATTTTCCTAATCTTTCTGTTCAAGCGCCATCTAC | 5.25
GATGATTGTTCTCCCAGCTGATGAATTATGTTCATCGAGTAAACAAATTTTCCTAATCTTTCTGTTCAAGCGCCATCTAC | 1.09

Sequence | binding signal (RPM ratio (pull-down/input))
GATGATTGTTCTCCCAGCTGATGAATTGTGCTGTTCGAGTAAACAAATTTTCCTAATCTTTCTGTTCAAGCGCCATCTAC | 3.6
GATGATTGTTCTCCCAGCTGATGAATTACTCGCATCGAGTAAACAAATTTTCCTAATCTTTCTGTTCAAGCGCCATCTAC | 0.838
GATGATTGTTCTCCCAGCTGATGAATTGTTGGATTCGAGTAAACAAATTTTCCTAATCTTTCTGTTCAAGCGCCATCTAC | 0.772
GATGATTGTTCTCCCAGCTGATGAATTCCGAACGTCGAGTAAACAAATTTTCCTAATCTTTCTGTTCAAGCGCCATCTAC | 0.301
GATGATTGTTCTCCCAGCTGATGAATTAGGTTTCTCGAGTAAACAAATTTTCCTAATCTTTCTGTTCAAGCGCCATCTAC | 1.24
GATGATTGTTCTCCCAGCTGATGAATTAAAATACTCGAGTAAACAAATTTTCCTAATCTTTCTGTTCAAGCGCCATCTAC | 0.458
GATGATTGTTCTCCCAGCTGATGAATTCTCCCGGTCGAGTAAACAAATTTTCCTAATCTTTCTGTTCAAGCGCCATCTAC | 0.148
GATGATTGTTCTCCCAGCTGATGAATTTCCATCATCGAGTAAACAAATTTTCCTAATCTTTCTGTTCAAGCGCCATCTAC | 0.45
GATGATTGTTCTCCCAGCTGATGAATTGATTCTGTCGAGTAAACAAATTTTCCTAATCTTTCTGTTCAAGCGCCATCTAC | 0.335
GATGATTGTTCTCCCAGCTGATGAATTCGTACTATCGAGTAAACAAATTTTCCTAATCTTTCTGTTCAAGCGCCATCTAC | 0.576
GATGATTGTTCTCCCAGCTGATGAATTTCAACAATCGAGTAAACAAATTTTCCTAATCTTTCTGTTCAAGCGCCATCTAC | 0.468
GATGATTGTTCTCCCAGCTGATGAATTTGTCGATTCGAGTAAACAAATTTTCCTAATCTTTCTGTTCAAGCGCCATCTAC | 1.97
GATGATTGTTCTCCCAGCTGATGAATTGGCCGGTTCGAGTAAACAAATTTTCCTAATCTTTCTGTTCAAGCGCCATCTAC | 0.266
GATGATTGTTCTCCCAGCTGATGAATTATTCGGATCGAGTAAACAAATTTTCCTAATCTTTCTGTTCAAGCGCCATCTAC | 0.255
GATGATTGTTCTCCCAGCTGATGAATTATGAGTGTCGAGTAAACAAATTTTCCTAATCTTTCTGTTCAAGCGCCATCTAC | 1.89
GATGATTGTTCTCCCAGCTGATGAATTCGTTAGATCGAGTAAACAAATTTTCCTAATCTTTCTGTTCAAGCGCCATCTAC | 0.321
GATGATTGTTCTCCCAGCTGATGAATTCTCGTTCTCGAGTAAACAAATTTTCCTAATCTTTCTGTTCAAGCGCCATCTAC | 0.443
GATGATTGTTCTCCCAGCTGATGAATTCTCCTACTCGAGTAAACAAATTTTCCTAATCTTTCTGTTCAAGCGCCATCTAC | 0.224
GATGATTGTTCTCCCAGCTGATGAATTGGCGAGATCGAGTAAACAAATTTTCCTAATCTTTCTGTTCAAGCGCCATCTAC | 0.32
GATGATTGTTCTCCCAGCTGATGAATTCGTCCCGTCGAGTAAACAAATTTTCCTAATCTTTCTGTTCAAGCGCCATCTAC | 0.54
GATGATTGTTCTCCCAGCTGATGAATTTCGCTCTTCGAGTAAACAAATTTTCCTAATCTTTCTGTTCAAGCGCCATCTAC | 0.502
